The whole screen tested about 150,000 compounds, of which about 540 (0.36%) showed an effect of 50% or more. Some of the results follow.

In this assay the test system is Plasmodium falciparum. The assay can be described thus: Primary screen in NF54 nanoGlo assay, in single point, at 2uM, 72h; a lower Z score goes with more inhibition. The following applies: timepoint 72 hour. The format is functional, Erythrocyte.
For `COCCCN1CC(=O)N[C@@H]2CN(C(=O)C3CCOCC3)CC[C@@H]2OCc2cccc(c2)Oc2cc(ccc2OC)C1`, the “% Inhibition” value is 6% and the Z score was -0.8.

With `CN1C[C@@H]2C[C@H]1C(=O)N[C@@H](Cc1ccccc1)C(=O)NCc1cn(nn1)CCCOc1cc(Cl)ccc1C(=O)N2`, the “% Inhibition” value is given as -2% and the Z score worked out at 0.37.

Take `O=S(=O)(c1ccc(-c2ccc(Cl)cc2)cc1)N1CCN(c2ccccc2)CC1`: the “% Inhibition” value is -5% and the Z score stood at 0.69.

Take `COCC(=O)N[C@@H](C)c1cncs1`: the “% Inhibition” value is reported as -1% and the Z score was 0.23.

On to `Cc1nccn1CCN(C)C(=O)C[C@H]1CCOC1`, for which the “% Inhibition” value is on record as -8% and the Z score is 1.55.

Take `OC1=Nc2c(ncn2-c2cc(F)cc(F)c2)[C@@H](c2cccnc2)C1`: the “% Inhibition” value worked out at 34% and the Z score is -3.88.

On to `Cc1ccc(S(=O)(=O)NCc2ccnc(N(C)C)c2)cc1N(C)C`, for which the “% Inhibition” value amounted to 4% and the Z score was -0.77.

Consider `Nc1ccc(-c2nc3ncccc3o2)cn1`, for which the “% Inhibition” value is 1% and the Z score was -0.1.

In the case of `CCN1CCN(C(=O)c2ccc(-c3nc(C)nc4c3cnn4C)cc2)CC1=O`, the “% Inhibition” value is recorded as -8% and the Z score was determined as 1.41.

`Cn1nccc1CNc1cc(C(F)(F)F)cc2c1OCC(=O)N2`: the “% Inhibition” value is -11% and the Z score was found to be 1.75.

Consider `COC(=O)[C@@H](c1ccccc1C)N1CCC(n2ccnn2)CC1`, for which the “% Inhibition” value is listed as -1% and the Z score turned out to be 0.15.

As for `COc1cc2cc(c1)C(=O)NCCCC(=O)N[C@H]1CN(Cc3ccc(OCCO)cc3)CC[C@@H]1OCc1cccc(c1)O2`, the “% Inhibition” value amounted to 0% and the Z score was found to be 0.07.

For the compound `CNC(=O)[C@@H]1CCCN1CC(C)=Cc1ccccc1`, the “% Inhibition” value is -4% and the Z score amounted to 0.57.

As for `COc1ccc(Cn2c(CN)nc3cccnc32)cc1`, the “% Inhibition” value worked out at 4% and the Z score is listed as -0.74.

Turning to `CCN1CCN(C(=O)c2ccc3nc(-c4cccc(OC)c4)oc3c2)[C@@H](C)C1=O`, the “% Inhibition” value was -9% and the Z score amounted to 1.61.

Take `Cc1cccc(Nc2nnc(CC(=O)N[C@@H](C)c3ccc(F)cc3)s2)c1`: the “% Inhibition” value was 8% and the Z score is given as -0.88.

In the case of `N#CC1(CNS(=O)(=O)c2cccnc2OCC(F)F)CCCCC1`, the “% Inhibition” value is listed as -5% and the Z score amounted to 0.44.

Turning to `Cc1ccc(N2CC[C@@H]3N(Cc4ccoc4)CCC[C@@]3(CO)C2)nn1`, the “% Inhibition” value is recorded as -2% and the Z score is listed as 0.35.

Regarding `CN1CC2(CCN(c3ccncc3)CC2)C[C@@H](c2ccccc2)C1=O`, the “% Inhibition” value is given as -6% and the Z score was 1.16.

As to `C1=CCC2CN(c3nccn4cnnc34)CC2C1` (centres undefined), the “% Inhibition” value was found to be 0% and the Z score is 0.03.

On to `Cc1cc(C(=O)N2CC[C@@]3(CCCN(C4CCCC4)C3=O)C2)cc(=O)[nH]1`, for which the “% Inhibition” value is given as 5% and the Z score was -0.88.

In the case of `Cc1ccc([C@H](CCO)NC(=O)Cn2nc(C)cc2N)cc1`, the “% Inhibition” value is listed as -8% and the Z score came to 1.21.

Regarding `CC1CCN(Cc2nnnn2CC(=O)N(CC2CCC2)C[C@H]2CCCO2)CC1`, the “% Inhibition” value is listed as -3% and the Z score is on record as 0.36.

Turning to `CN(C)C(=O)C1CCN(C(=O)C2c3ccccc3Oc3ccccc32)CC1`, the “% Inhibition” value was determined as 1% and the Z score is -0.16.

In the case of `Cc1noc([C@@H](C)NC(=O)CC(C)C)c1C(=O)O`, the “% Inhibition” value worked out at 27% and the Z score is -1.93.

`COc1cccc2c3c(cnc12)C(=O)NCCN3`: the “% Inhibition” value is -13% and the Z score came to 1.47.

As for `CCCC(=O)N[C@H]1CCCN(C(=O)Cn2cc(S(=O)(=O)N(CC)CC)ccc2=O)C1`, the “% Inhibition” value is on record as -17% and the Z score was 1.78.

Take `COc1cccc(CC(=O)N[C@@H]2c3ccccc3C3(CCNCC3)[C@H]2O)c1`: the “% Inhibition” value was 11% and the Z score is -1.48.

Consider `O=C(NCC1CCCO1)C1COC2(CCN(C(=O)c3cccc(Cl)c3)CC2)N1C(=O)c1ccco1` (centres undefined), for which the “% Inhibition” value is -9% and the Z score was determined as 1.52.

Turning to `CCn1c(=O)cc(C(C)C)c2ccc(OCC(=O)Nc3ccccc3F)cc21`, the “% Inhibition” value was -4% and the Z score is on record as 0.49.

As for `Cc1ccc2c(c1)N(C(=O)C(=O)NC[C@H]1CCC(=O)N1)CC2`, the “% Inhibition” value is on record as -9% and the Z score was found to be 0.76.

For the compound `CC(C)(C)n1cnc(C(=O)N2Cc3ccc(Cl)cc3C2)n1`, the “% Inhibition” value amounted to 2% and the Z score was -0.31.

As for `O=C(O)C1(n2cccn2)CCN(Cc2ccc3[nH]ccc3c2)CC1`, the “% Inhibition” value is -21% and the Z score worked out at 1.81.

In the case of `CCC(=O)N1CCC[C@@](NCCc2ccccc2)(c2nnnn2C2CCCC2)C1`, the “% Inhibition” value was -14% and the Z score was 1.9.

On to `Cc1cnccc1CCNC(=O)N1CCOC[C@@H](C2CCC2)C1`, for which the “% Inhibition” value is -5% and the Z score is reported as 0.79.

Turning to `CCS(=O)(=O)c1cc(Cl)cc(CNC(=O)[C@@H]2CCCCO2)c1`, the “% Inhibition” value is given as -12% and the Z score worked out at 1.48.

For `CCN1CCCC1CNS(=O)(=O)C(C)COC` (centres undefined), the “% Inhibition” value was -4% and the Z score was 0.45.

Turning to `Cc1ccccc1CNS(=O)(=O)c1ccc(-c2nnc(C3CCC3)o2)s1`, the “% Inhibition” value is on record as -2% and the Z score is on record as 0.37.

As to `Cc1cc(CN2CC[C@H](N(C)C)C2)c2ccc(C)c(C)c2n1`, the “% Inhibition” value stood at 12% and the Z score was -1.56.

On to `OCC#Cc1ccc(-c2c(-c3ccccc3)ncn2Cc2cccnc2)s1`, for which the “% Inhibition” value is 3% and the Z score is reported as -0.64.

For the compound `CC1(CCNC(=O)NCC2(c3ccc(F)cc3F)CC2)OCCO1`, the “% Inhibition” value is recorded as -14% and the Z score is 2.65.

As for `COCC[C@]1(c2noc(-c3ccc(F)cc3)n2)CCCN(S(=O)(=O)c2cccnc2)C1`, the “% Inhibition” value is -8% and the Z score stood at 1.3.

As for `COc1ccc(-c2nc3cc(C)ccc3cc2CN2CCN3CCC[C@H]3C2)cc1`, the “% Inhibition” value is listed as -11% and the Z score was 1.93.

Turning to `Cc1ccc([C@@H]2CCCN2CC(=O)Nc2c(C)n[nH]c2C)s1`, the “% Inhibition” value is given as -12% and the Z score was determined as 1.68.

Turning to `CC(C)[C@H](NC(=O)NCc1ccccc1)C(=O)N1CCC(O)CC1`, the “% Inhibition” value was -8% and the Z score is 1.1.

Take `O=C(c1n[nH]c2ccc(Cl)cc12)N1CCC(OC2CCC2)CC1`: the “% Inhibition” value is given as -11% and the Z score came out at 1.74.

`O=C1c2cccc3cccc(c23)C(=O)N1c1ccc2c(c1)oc1ccccc12`: the “% Inhibition” value is given as -7% and the Z score came to 0.88.

Take `Cc1cc(N2CCC[C@@H]2CCc2ccccn2)nc(C)n1`: the “% Inhibition” value is -14% and the Z score stood at 1.89.

Take `CN(C/C=C/c1ccccc1)Cc1ccc(C(=O)N(C)C)o1`: the “% Inhibition” value was -10% and the Z score was found to be 1.39.

Regarding `N#Cc1ccccc1CN1CC[C@@]2(CCCN(Cc3ccc(F)c(F)c3)C2=O)C1`, the “% Inhibition” value is recorded as -12% and the Z score is 1.51.

As for `Cc1ccc(C(=O)c2nocc2C(=O)c2cccnc2)cc1`, the “% Inhibition” value is reported as 1% and the Z score was -0.19.

As to `COc1ccc(C(=O)N[C@@H]2CCCC[C@H]2NC(=O)C2CCCN(C(=O)c3cccc(F)c3)C2)cc1` (some centres undefined), the “% Inhibition” value is -6% and the Z score was 0.59.

For orientation: % Inhibition means the relative decrease from the control value, in per cent.

(Values after ChEMBL document CHEMBL4888484, “Replenishing the malaria drug discovery pipeline: Screening and hit evaluation of the MMV Hit Generation Library 1 (HGL1) against asexual blood stage Plasmodium falciparum ,using a nano luciferase reporter read-out” (2022).)
